Measurements from paper PMC9845987 (Cancer research, 2023).

Assays:
[1] = test system: p-SYK^Y525/526 in WM3918 xenograft tumors; assay: Xenograft pharmacodynamic Western blot; type: in vivo, mouse; details: single dose 100 mg/kg IP; 0.5 h after dosing
[2] = test system: COLO792, MeWo and WM3918 cells; assay: NucView Caspase-3/7 apoptosis assay; type: cell-based, human; details: 48 or 72 h; increasing concentrations
[3] = test system: MeWo and WM3918 cells; details: increasing concentrations, 48 h

N-(2-chloro-5-(4-((3-chloro-4-fluorophenyl)amino)-3-cyanoquinolin-6-yl)pyridin-3-yl)methanesulfonamide [MTX-216]
p-SYK levels in excised tumors [1]: significant reduction
Frequency of apoptotic cells (high caspase activity) [2]: dose-dependent increase in the frequency of apoptotic cells
Potency in reducing mitochondrial mass (MitoTracker Deep Red) [3]: significantly more potent than MTX-211 in reducing both mitochondrial markers
